The values below come from article PMC4336329 (PLoS ONE, 2015).

In all, about 310,000 compounds went through this assay and about 14,000 (4.5%) showed an effect of 50% or more. Effects have a minus sign here. The list shows a part of the results.
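Further: peak tail current of the secondary pulse compared with the same well before compound.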

For this test, the target named is human ether-à-go-go-related gene (hERG) potassium channel (human, UniProt Q12809). Description: primary screen, population patch clamp on CHO cells stably expressing hERG.
human ether-à-go-go-related gene (hERG) potassium channel, sequence (Q12809 whole entry, looked up): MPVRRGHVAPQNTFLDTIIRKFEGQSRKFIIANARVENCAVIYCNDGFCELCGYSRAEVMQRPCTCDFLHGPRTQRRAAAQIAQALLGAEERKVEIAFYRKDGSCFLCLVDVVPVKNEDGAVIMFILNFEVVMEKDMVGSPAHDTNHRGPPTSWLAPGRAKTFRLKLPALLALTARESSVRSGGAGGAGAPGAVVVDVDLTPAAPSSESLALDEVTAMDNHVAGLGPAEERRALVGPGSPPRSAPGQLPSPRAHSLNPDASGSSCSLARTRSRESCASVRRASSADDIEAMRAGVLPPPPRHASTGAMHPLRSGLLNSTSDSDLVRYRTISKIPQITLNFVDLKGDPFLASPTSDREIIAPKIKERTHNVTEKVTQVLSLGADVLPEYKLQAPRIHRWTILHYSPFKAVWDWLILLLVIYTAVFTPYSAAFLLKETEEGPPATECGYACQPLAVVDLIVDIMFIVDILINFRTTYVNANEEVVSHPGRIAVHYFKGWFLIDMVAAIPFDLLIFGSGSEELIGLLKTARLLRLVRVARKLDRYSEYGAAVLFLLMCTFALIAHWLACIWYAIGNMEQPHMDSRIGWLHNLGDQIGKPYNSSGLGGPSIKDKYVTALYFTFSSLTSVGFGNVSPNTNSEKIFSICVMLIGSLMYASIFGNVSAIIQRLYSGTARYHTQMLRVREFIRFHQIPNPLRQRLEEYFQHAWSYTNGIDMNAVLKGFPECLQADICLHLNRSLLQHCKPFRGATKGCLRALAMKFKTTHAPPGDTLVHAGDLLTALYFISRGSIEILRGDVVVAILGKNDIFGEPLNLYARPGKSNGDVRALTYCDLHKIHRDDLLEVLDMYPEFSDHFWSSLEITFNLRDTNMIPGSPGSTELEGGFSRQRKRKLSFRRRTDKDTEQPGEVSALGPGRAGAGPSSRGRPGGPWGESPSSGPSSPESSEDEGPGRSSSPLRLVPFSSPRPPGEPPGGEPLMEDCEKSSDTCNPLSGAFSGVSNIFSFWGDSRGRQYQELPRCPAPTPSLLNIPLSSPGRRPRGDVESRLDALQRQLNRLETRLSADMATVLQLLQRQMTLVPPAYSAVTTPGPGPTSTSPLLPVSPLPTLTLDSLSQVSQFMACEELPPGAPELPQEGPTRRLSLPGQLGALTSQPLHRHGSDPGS
With `O=C(NCc1ccccn1)c1cc2ccccc2oc1=O`, the “hERG current change (%, negative = inhibition) at 10uM” value was 4.95%. In the case of `Cc1ccc(C)c(Oc2coc3cc(OCC(=O)Nc4ccccc4C(C)C)ccc3c2=O)c1` it was 3.76%.

For `C/C(=N\NC(=O)c1ccccc1F)c1cccc(NC(=O)c2ccccc2)c1`, the “hERG current change (%, negative = inhibition) at 10uM” value worked out at 18%.

With `NC(=O)c1ccsc1NC(=O)COC(=O)c1ccccc1F`, the “hERG current change (%, negative = inhibition) at 10uM” value is listed as 9.9%. In the case of `COc1ccc(N(C(=O)c2ccn[nH]2)C(C(=O)NC2CCCC2)c2ccc(F)cc2)cc1` (stereo not shown) it was 3.45%; in that of `CC(=O)NCCOc1c(C)cc(S(N)(=O)=O)cc1C`, 19.5%. Take `COc1cc(NC(=S)NCc2ccco2)cc(OC)c1`: the “hERG current change (%, negative = inhibition) at 10uM” value was determined as 5.06%.

As to `CN1C2=C(C(=O)CC(C)(C)C2)C(c2cccs2)C2=C1CC(C)(C)CC2=O`, the “hERG current change (%, negative = inhibition) at 10uM” value is listed as -4.74%. For `Cc1ccc(N(Cc2cc(=O)[nH]c3ccccc23)C(=O)C(C)C)c(C)c1`, the “hERG current change (%, negative = inhibition) at 10uM” value stood at 1.62%. In the case of `CSCCC(C(=O)N1C[C@]2(C)C[C@H]1CC(C)(C)C2)N1C(=O)c2ccccc2C1=O` (stereo partly shown) it was -15.1%; in that of `COC(=O)COc1cccc(NC(=O)c2ccccc2)c1`, 1.84%. For `Cc1ccc(-n2ncc3c(=O)[nH]c(SCC(=O)N4CCN(c5ccccc5)CC4)nc32)cc1` the value was 3.28%; for `O=C(CN1CCN(c2cccc(C(F)(F)F)c2)CC1)N(C1CC1)C1CCS(=O)(=O)C1` (stereo not shown), -29.2%. For `COc1cccc(-c2nnn(CC(=O)N3CCCCC3)n2)c1` the value was 4.75%. As for `NC(=O)CC(NC(=O)c1ccc(Br)cc1)c1ccc(N2CCN(c3ccc(F)cc3)CC2)c([N+](=O)[O-])c1` (stereo not shown), the “hERG current change (%, negative = inhibition) at 10uM” value is on record as 6.16%. For `CN1CC(C(=O)c2ccc(F)cc2)C(c2ccc(F)cc2)C1` (stereo not shown) the value was -30.2%. In the case of `CN(C)c1nc2c(c(=O)[nH]c(=O)n2C)n1Cc1ccc(F)cc1` it was -2.28%; in that of `COC(=O)[C@H](Cc1ccccc1)NC(=O)NCc1ccccc1`, 2.31%; in that of `COc1ccc(/C=C/C(=O)Nc2ccc(C(N)=O)cc2)cc1OC`, 12.2%. Take `Cn1c(CNC(=O)CCNC(=O)c2ccc(F)c(F)c2)cc(=O)n(C)c1=O`: the “hERG current change (%, negative = inhibition) at 10uM” value was -4.8%. For `O=C1CN(C(=O)COC(=O)Cc2ccccc2)c2ccccc2N1` the value was 12.5%; for `O=C(c1cc2nc(-c3ccco3)cc(C(F)(F)F)n2n1)N1CCN(c2ccc(F)cc2)CC1`, -34.5%. For `CCc1ccc(CN(C)Cc2nc(COc3ccccc3)no2)nc1` the value was -11.4%; for `Cc1ccc(Nc2cnn(C34CC5CC(CC(CC(=O)O)(C5)C3)C4)c(=O)c2Cl)cc1`, 12%; for `CC(=O)c1cccc(NC(=O)C(Sc2ncnc3ccccc23)c2ccccc2)c1` (stereo not shown), -25.8%.

Take `COc1ccc(-c2nc(C)c(C(C)=O)n2O)cc1[N+](=O)[O-]`: the “hERG current change (%, negative = inhibition) at 10uM” value stood at 8.82%.

As to `[O-]/[N+](=C/c1ccc(F)cc1)c1ccccc1`, the “hERG current change (%, negative = inhibition) at 10uM” value came out at 2.75%.

With `COCCN1C(=O)N[C@@H](c2ccc(Br)cc2)C(C(=O)OC)=C1C`, the “hERG current change (%, negative = inhibition) at 10uM” value is on record as -31.9%. In the case of `COc1ccc(/C=C2\SC(=S)N(CC(=O)NNC(=O)c3ccncc3)C2=O)cc1` it was 15%; in that of `CC1=C(/C=C/C(=O)O)C(C)(C)CCC1`, 15.3%; in that of `N#Cc1nc(-c2ccco2)oc1NCCCN1CCOCC1`, -54.9%. Consider `NC(=O)COc1ccc(C2c3c(oc4ccccc4c3=O)C(=O)N2CC2CCCO2)cc1` (stereo not shown), for which the “hERG current change (%, negative = inhibition) at 10uM” value is recorded as -18%. In the case of `CCN(Cc1ccccc1)C(=O)CN1C(=O)COc2ccc(S(=O)(=O)NC3CCCC3)cc21` it was -54.2%; in that of `COc1cccc(NC(=O)c2cc(OC)c(OC)c(OC)c2Br)c1`, 11.4%. In the case of `O=C(N/N=C/c1ccc(N2CCOCC2)o1)c1ccccc1[N+](=O)[O-]` it was 12.9%. For `C=CCc1cccc(OC)c1OCCOCCNCCO.O=C(O)C(=O)O` the value was 1.46%. On to `CCNC(=O)N1CCNC(=O)C1CC(=O)Nc1ccc(C(=O)OCC)cc1` (stereo not shown), for which the “hERG current change (%, negative = inhibition) at 10uM” value is given as 5.52%.

For `CCOC(=O)c1sc(NC(=O)CSc2nnc(Cc3ccccc3)o2)c(C(=O)OCC)c1C`, the “hERG current change (%, negative = inhibition) at 10uM” value worked out at 9.46%. For `COc1ccc(NC(=S)N(Cc2ccc(C(=O)O)cc2)Cc2ccc(OC)c(OC)c2)cc1` the value was 28.8%; for `Cc1cc(C(=O)Nc2ccccc2[N+](=O)[O-])cs1`, -19.5%; for `CNC(=O)c1sc(-c2ccccc2)nc1C`, 5.39%. With `CC(C)(C)c1ccc(OC(=O)c2ccc(-n3cncn3)nc2)cc1`, the “hERG current change (%, negative = inhibition) at 10uM” value stood at 16%. In the case of `O=C(CN(Cc1ccc(Br)cc1)S(=O)(=O)c1ccccc1)NCc1ccncc1` it was -68.8%.
